The supplement of paper PMC4967469
Lines with a small IC50 respond at low doses; where the fit passes the top or lowest dose, that dose stands as a limit. AUC is the area under the same curve over the 256-fold range up to the top dose, as a fraction; the more sensitive the line, the further below 1. For some of these results: An inferred top dose is not printed in the source and was worked back from the curve model. For some of these results: An entry number marks a drug with two screens in the source, which often give different values.

Legend:
Test in all cases: Viability of human cancer cell lines after 72 h of drug (GDSC screen)
Epothilone B = compound: C/C(=C\c1csc(C)n1)[C@@H]1C[C@@H]2O[C@]2(C)CCC[C@H](C)[C@H](O)[C@@H](C)C(=O)C(C)(C)[C@@H](O)CC(=O)O1 [Epothilone B]; details: top dose 0.032 µM; top dose inferred
Description: (§1)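 Human cancer cell lines in 384-well plates, medium with 10% serum, drug for 72 h over a 256-fold dose range (nine 2-fold or five 4-fold steps up to the top dose). Adherent lines were fixed and stained with the nucleic acid dye Syto60, suspension lines read with resazurin; signal relative to control wells, capped at 0 and 100%. One two-parameter sigmoid per drug and line, fitted in a mixed model over all curves with the slope shared within a line.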

PHA-793887 = compound: CC(C)CC(=O)Nc1n[nH]c2c1CN(C(=O)C1CCN(C)CC1)C2(C)C [PHA-793887]; details: top dose 10.24 µM
Description: as §1

Y-39983 = compound: C[C@@H](N)c1ccc(C(=O)Nc2ccnc3[nH]ccc23)cc1 [Y-39983]; details: top dose 20 µM; top dose inferred
Description: as §1

TPCA-1 = compound: NC(=O)Nc1sc(-c2ccc(F)cc2)cc1C(N)=O [TPCA-1]; details: top dose 20 µM
Description: as §1

PLX4720 = compound: CCCS(=O)(=O)Nc1ccc(F)c(C(=O)c2c[nH]c3ncc(Cl)cc23)c1F [PLX4720]; details: top dose 10 µM
Description: as §1

[1] = screen: GDSC drug entry 1371, top dose inferred

Row | Cell Line | AUC (Epothilone B) | IC50 (Epothilone B) [nM] | AUC (PHA-793887) | IC50 (PHA-793887) [µM] | AUC (Y-39983) | IC50 (Y-39983) [µM] | AUC (TPCA-1) | IC50 (TPCA-1) [µM] | AUC (PLX4720; [1]) | IC50 (PLX4720; [1]) [µM] | AUC (PLX4720; screen: GDSC drug entry 1036) | IC50 (PLX4720; screen: GDSC drug entry 1036) [µM]
1 | Mewo (melanoma, adherent) | 0.97 | > 32 | 0.98 | > 10.2 | 0.972 | > 20 | 0.981 | > 20 | 0.982 | > 10 |  | 
2 | NCI-H28 (mesothelioma, adherent) | 0.782 | 18 | 0.968 | > 10.2 | 0.955 | > 20 | 0.909 | > 20 | 0.977 | > 10 | 0.933 | > 10
3 | NCI-H196 (small cell lung carcinoma, adherent) | 0.933 | > 32 | 0.965 | > 10.2 | 0.969 | > 20 | 0.927 | > 20 | 0.987 | > 10 |  | 
4 | NCI-H292 (lung adenocarcinoma, adherent) | 0.481 | 1.76 | 0.948 | > 10.2 | 0.91 | > 20 | 0.597 | 2.44 | 0.974 | > 10 |  | 
5 | NCI-H358 (lung adenocarcinoma, adherent) | 0.553 | 2.84 | 0.543 | 0.848 | 0.929 | > 20 | 0.635 | 3.08 | 0.932 | > 10 | 0.887 | > 10
6 | NCI-H441 (lung adenocarcinoma, adherent) | 0.544 | 2.76 | 0.977 | > 10.2 | 0.974 | > 20 | 0.81 | 16.4 | 0.901 | > 10 |  | 
7 | NCI-H460 (large cell lung carcinoma, adherent) | 0.223 | 0.343 | 0.99 | > 10.2 | 0.966 | > 20 | 0.906 | > 20 | 0.989 | > 10 | 0.982 | > 10
8 | NCI-H520 (lung squamous cell carcinoma, adherent) | 0.571 | 3.16 | 0.607 | 1.27 | 0.915 | > 20 | 0.693 | 4.43 | 0.986 | > 10 | 0.986 | > 10
9 | NCI-H522 (lung adenocarcinoma, adherent) | 0.356 | 0.741 | 0.979 | > 10.2 | 0.901 | > 20 | 0.896 | > 20 | 0.972 | > 10 | 0.962 | > 10
10 | NCI-H596 (lung adenocarcinoma, adherent) | 0.751 | 13.4 | 0.853 | > 10.2 | 0.91 | > 20 | 0.84 | > 20 | 0.98 | > 10 | 0.962 | > 10
11 | NCI-H647 (non-small cell lung carcinoma, adherent) | 0.593 | 3.64 | 0.438 | 0.431 | 0.883 | > 20 | 0.849 | 16.1 | 0.53 | 0.757 | 0.963 | > 10
12 | NCI-H650 (lung adenocarcinoma, adherent) | 0.812 | 19.3 | 0.886 | > 10.2 | 0.928 | > 20 | 0.901 | > 20 | 0.98 | > 10 | 0.928 | > 10
13 | NCI-H661 (large cell lung carcinoma, adherent) | 0.755 | 12.9 | 0.802 | 6.3 | 0.98 | > 20 | 0.934 | > 20 | 0.98 | > 10 | 0.911 | > 10
14 | NCI-H727 (lung carcinoid, adherent) | 0.495 | 1.92 | 0.929 | > 10.2 | 0.951 | > 20 | 0.865 | > 20 | 0.97 | > 10 | 0.838 | > 10
15 | NCI-H810 (large cell lung carcinoma, adherent) | 0.315 | 0.622 | 0.43 | 0.415 | 0.929 | > 20 | 0.856 | 15 | 0.92 | > 10 | 0.985 | > 10
16 | NCI-H838 (lung adenocarcinoma, adherent) | 0.755 | 11.3 | 0.915 | > 10.2 | 0.967 | > 20 | 0.923 | > 20 | 0.985 | > 10 | 0.985 | > 10
17 | NCI-H841 (small cell lung carcinoma, adherent) | 0.844 | 23.1 | 0.961 | > 10.2 | 0.957 | > 20 | 0.93 | > 20 | 0.986 | > 10 | 0.975 | > 10
18 | NCI-H1048 (small cell lung carcinoma, adherent) | 0.662 | 5.36 | 0.853 | 6.8 | 0.957 | > 20 | 0.445 | 0.899 | 0.983 | > 10 | 0.947 | > 10
19 | NCI-H1435 (lung adenocarcinoma, semi-adherent) | 0.828 | 16.8 | 0.993 | > 10.2 | 0.985 | > 20 | 0.948 | > 20 | 0.99 | > 10 | 0.981 | > 10
